Results taken from US20200338132A1, “COMPOSITIONS AND METHODS FOR THE EXPANSION OF HEMATOPOIETIC STEM AND PROGENITOR CELLS AND TREATMENT OF INHERITED METABOLIC DISORDERS” (Magenta Therapeutics Inc., priority 2018, published 2020).

Assays:
[1] = system: CD34+ hematopoietic stem cells; experiment: proliferation of CD34+ hematopoietic stem cells from mononuclear peripheral blood cells, seven days; format: cell-based; details: for potency of promoting hematopoietic stem cell expansion compared to SR1: compared to potency reported for StemRegenin1; for hematopoietic stem cell growth (percentage of CD34+ cells): seven days following initial plating
Protocol: To assess the ability of compounds (7) and (18) to induce the proliferation of hematopoietic stem cells, a population of mononuclear peripheral blood cells enriched in CD34+ cells were plated at a density of 2,350 cells per well (50 μL) in a microtiter plate in the presence of each compound. The percentage of CD34+ hematopoletic stem cells was assessed seven days following the initial plating. […] The compounds of formula (IV) and (V) described herein can thus be used to expand hematopoletic stem cells ex vivo in order to obtain sufficient quantities of such cells for in vivo applications.

[2] = target: T1, aryl hydrocarbon receptor (Homo sapiens, UniProt P35869); experiment: aryl hydrocarbon receptor-responsive luciferase reporter in transiently transfected HepG2 cells; format: cell-based; details: absence or presence of agonist VAF347 (80 nM), six hours after plating
T1 construct: HepG2 hepatocytes were transiently transfected with a luciferase reporter construct under the control of a promoter responsive to aryl hydrocarbon receptor signal transduction; endogenous in cells; host or cells: HepG2
T1 sequence (P35869 11-848): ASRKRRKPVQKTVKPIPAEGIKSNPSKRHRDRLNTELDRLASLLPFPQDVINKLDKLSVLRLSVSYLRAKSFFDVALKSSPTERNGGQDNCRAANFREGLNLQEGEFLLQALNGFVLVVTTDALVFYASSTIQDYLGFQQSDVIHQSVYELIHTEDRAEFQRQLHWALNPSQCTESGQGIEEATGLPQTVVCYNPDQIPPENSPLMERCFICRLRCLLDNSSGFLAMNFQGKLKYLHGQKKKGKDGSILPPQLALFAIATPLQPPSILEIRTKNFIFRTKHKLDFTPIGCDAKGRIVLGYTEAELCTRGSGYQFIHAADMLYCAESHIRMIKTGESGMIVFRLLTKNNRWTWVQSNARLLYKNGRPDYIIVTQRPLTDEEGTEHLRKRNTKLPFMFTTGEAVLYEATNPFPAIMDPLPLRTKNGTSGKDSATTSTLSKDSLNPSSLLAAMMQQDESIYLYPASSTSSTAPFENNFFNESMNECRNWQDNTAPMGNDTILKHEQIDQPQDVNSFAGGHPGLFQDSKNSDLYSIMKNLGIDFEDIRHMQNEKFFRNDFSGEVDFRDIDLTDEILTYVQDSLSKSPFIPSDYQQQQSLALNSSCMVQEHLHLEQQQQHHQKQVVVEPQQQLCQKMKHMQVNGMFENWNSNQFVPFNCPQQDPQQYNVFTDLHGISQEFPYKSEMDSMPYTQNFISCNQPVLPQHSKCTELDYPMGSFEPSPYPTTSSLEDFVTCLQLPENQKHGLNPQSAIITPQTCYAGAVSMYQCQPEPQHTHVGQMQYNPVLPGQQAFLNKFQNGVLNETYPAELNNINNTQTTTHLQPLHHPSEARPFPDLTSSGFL
Protocol: To determine the ability of compounds (7) and (18) to inhibit the activity of the aryl hydrocarbon receptor and to induce the proliferation of hematopoietic stem cells, a series of HSC expansion experiments were conducted. In the first experiment, compounds (7) and (18) were assessed for their capacity to attenuate aryl hydrocarbon receptor signaling. To this end, HepG2 hepatocytes were transiently transfected with a luciferase reporter construct under the control of a promoter responsive to aryl hydrocarbon receptor signal transduction. The cells were plated at a density of 25,000 cells per well in a microtiter plate. The HepG2 cells were immediately treated with compound (7) or (18) in the absence (FIG. 1) or presence (FIG. 2) of the aryl hydrocarbon receptor agonist, VAF347 (80 nM). Luciferase activity was subsequently analyzed six hours after plating.

CD34+ cord blood cells = details: cited from earlier work; for CD90+ cells after culturing CD34+ cord blood cells: frequently in the presence of cytokines
[3] = system: mobilized peripheral blood cells; experiment: 7-day expansion of mobilized peripheral blood cells, 10-point dose response, FACS for CD34 and CD90
NSG mice [4] = experiment: engraftment in NSG mice of CD34+ cord blood cells cultured 10 days with compounds, hCD45+ at 12 weeks; format: in vivo; details: 12 weeks after transplantation
Protocol: […]. The frequency of human CD45 cells was assayed at 12 weeks post transplantation. The Bar graph indicates the median. Each symbol represents individual mouse (n=6-8) *p<0.05, *p<0.01, *p<0.001 relative to vehicle-cultured cells.
In order to determine if the increase in CD90+ expression would lead to expansion of long-term HSCs, the percent engraftment of cells expanded using SR, UM171, Entinostat, LMK235, Romidepsin, Scriptaid, TSA or VPA at varying concentrations was assessed in NSG mice. CD34+ cord blood cells, either fresh or cultured for 10 days with or without SR, UM171, Entinostat, LMK235, Romidepsin, Scriptaid, TSA or VPA were transplanted into NSG mice, 12 weeks after transplantation, the frequency of human CD45+(hCD45+) cells was assessed. […] It was therefore hypothesized that the CD90+ cells observed after expansion UM171, Entinostat, LMK235, Romidepsin, Scriptaid, TSA or VPA were not true HSCs. […] […]. Rather, culturing cells with these agents instead causes CD90− cells to turn on the expression of CD90 during the culturing and expansion process.

[5] = patients transplanted with SR1-expanded cord blood cells; historical controls 25 days; cited from earlier work
NSG mice [6] = experiment: engraftment of expanded CD34+ cells in sub-lethally irradiated NSG mice; format: in vivo; details: relative to vehicle-cultured CB derived CD34+ cells
Protocol: […]. Cell number and immunophenotype were assessed by flow cytometry, and HSC function was evaluated by cell and molecular assays in vitro. The expanded cells were transplanted into sub-lethally irradiated NSG mice to evaluate engraftment potential in vivo. Engraftment rates were evaluated by flow cytometry of the peripheral blood and bone marrow.

[7] = system: CD90− and CD90+ sorted cells; experiment: colony formation on methylcellulose of sorted CD90− or CD90+ cells cultured with compounds; details: Scriptaid 100 nM and 300 nM, TSA 30 nM; versus vehicle; listed as SR
NSG mice [8] = experiment: transplantation into NSG mice of human hematopoietic stem cells expanded ex vivo with the compound; peripheral blood hCD45+ and brain microglia; details: NSG mice transplanted with hematopoietic stem cells expanded ex vivo in the presence of the compound
Protocol: To investigate the ability of hematopoletic stem cells to differentiate into microglial cells and subsequently engraft in central nervous system tissue, such as the brain of a hematopoletic stem cell transplant recipient, a series of experiments were conducted in which human hematopoletic stem cells were first expanded ex vivo in the presence of an aryl hydrocarbon receptor antagonist (compound (18) or compound (26)) and were subsequently transplanted into NSG mice, in accordance with the scheme shown in FIG. 4. The frequency of human CD45+ cells in the peripheral blood of the mice was then determined, as well as the profile of microglial cells in the brain tissue using flow cytometry and immunohistochemistry techniques.
Approximately 60,000 cord blood CD34+ cells were seeded in T25 flasks at a final volume of 12 mL in HSC growth media (SFEM supplemented with Pen/Strep, 50 ng/mL FLT3L, TPO, SCF, and IL-8). […]
At the time of thaw, an equal number of cells to the starting cell cultures were injected Into NSG mice, sublethally irradiated (200 cGy) 24 hours prior to injection. […] Peripheral blood was harvested by retro-orbital bleeding at approximately weeks 4 and 8 or by cardiac puncture at week 12 or 16 or as otherwise indicated in FIG. 26 and chimerism was assessed by flow cytometry using antibodies against hCD45, mCD45, hCD33, hCD19, hCD3 and a viability dye. […]

Structure (SMILES) | potency of promoting hematopoietic stem cell expansion compared to SR1 [1] | hematopoietic stem cell growth (percentage of CD34+ cells) [1] | aryl hydrocarbon receptor activity (aryl hydrocarbon receptor-driven expression of luciferase) [2] | CD90+ cells after culturing CD34+ cord blood cells (CD34+ cord blood cells) | other results
CCC(C)c1cnc2c(NCCc3c[nH]c4ccccc34)cc(-c3cncc(F)c3)cn12 (stereo not shown) [compound (7)] | potency greater than that reported for StemRegenin1 | potentiating hematopoletic stem cell growth in a dose-dependent manner | capable of suppressing aryl hydrocarbon receptor activity even in the presence of the activator VAF347 | – | –
CC(/C=C/C(=O)NO)=C\[C@@H](C)C(=O)c1ccc(N(C)C)cc1 [TSA, trichostatin A] | – | – | – | increase in CD90+ cells | –
CC(C)n1cnc2c(NCCc3ccc(O)cc3)nc(-c3csc4ccccc34)nc21 [SR1, StemRegenin1] | – | – | – | – | number of CD90+ cells ([3]; after 7 days of expansion): increased the number of CD90+ cells; differentiation of CD34+ cells into CD34− cells ([3]; day 7, about half of DMSO vehicle cells differentiated): prevented the differentiation of CD34+ cells; engraftable HSCs (frequency of human CD45+ cells) (NSG mice [4]): largest increase in engraftable HSCs; time to neutrophil recovery [5]: 10.5 days; number of phenotypic HSCs (CD34+ cord blood cells; cultured primary human CD34+ cells (Boitano et al.)): enhances the number of phenotypic HSCs; engraftment in NSG mice (NSG mice [6]): significant increase in engraftment in NSG mice; colony formation of CD90+ sorted cells [7]: increases colony formation units (CFUs) after expansion
CCC(C)c1cnc2c(NCCc3c[nH]c4ccccc34)nc(-c3cncc(F)c3)cn12 (stereo not shown) [compound (18)] | potency greater than that reported for StemRegenin1 | potentiating hematopoletic stem cell growth in a dose-dependent manner | capable of suppressing aryl hydrocarbon receptor activity even in the presence of the activator VAF347 | – | frequency of hCD45+ cells in peripheral blood (NSG mice [8]): increased frequency of hCD45+ cells in peripheral blood
CCCC(CCC)C(=O)O [VPA, valproic acid] | – | – | – | increase in CD90+ cells | –
